Source: article PMC3787956, “Soluble Human Leukocyte Antigen-G5 Activates Extracellular Signal-Regulated Protein Kinase Signaling and Stimulates Trophoblast Invasion” (PLoS ONE, 2013)

Biological target: leukocyte immunoglobulin-like receptor subfamily B1 (LILRB1) (human (endogenous in JAr and JEG-3), UniProt Q8NHL6 24-650)
Experiment: cell-based or functional assay

UniProt Q8NHL6, sequence (Q8NHL6 24-650): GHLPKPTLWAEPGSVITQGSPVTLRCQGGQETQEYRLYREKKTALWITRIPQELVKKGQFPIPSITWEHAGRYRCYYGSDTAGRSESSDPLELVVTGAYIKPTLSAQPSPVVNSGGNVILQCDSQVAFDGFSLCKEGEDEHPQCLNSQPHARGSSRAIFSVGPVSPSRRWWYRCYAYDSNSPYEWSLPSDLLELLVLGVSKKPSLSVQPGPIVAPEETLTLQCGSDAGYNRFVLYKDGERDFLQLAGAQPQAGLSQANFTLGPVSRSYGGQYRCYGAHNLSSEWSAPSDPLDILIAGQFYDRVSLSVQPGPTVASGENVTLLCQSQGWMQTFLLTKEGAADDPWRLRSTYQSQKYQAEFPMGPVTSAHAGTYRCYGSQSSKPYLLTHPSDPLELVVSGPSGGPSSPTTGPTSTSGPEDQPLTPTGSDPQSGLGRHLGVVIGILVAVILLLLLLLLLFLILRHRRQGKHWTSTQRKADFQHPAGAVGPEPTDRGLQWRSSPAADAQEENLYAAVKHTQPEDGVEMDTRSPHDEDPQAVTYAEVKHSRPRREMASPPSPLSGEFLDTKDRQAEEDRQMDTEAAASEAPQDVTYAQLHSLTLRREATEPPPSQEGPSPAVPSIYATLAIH

invasiveness of JEG-3 cells in the Matrigel trans-well invasion assay with HLA-G5, percent relative to untreated control, 236.2% without antibody; value with anti-LILRB1 antibody: 96.2%
B1: Recombinant HLA-G5 protein (soluble human leukocyte antigen-G5) (ligand)
MHC heavy: not shown
modifications: labeled with Alexa Fluor 488 (microscale protein labeling kit)
